Laboratory results: PMC4242493
The other results are listed elsewhere or left out. The list includes weakly bound sequences.

molecular target: MaxL homodimer (UniProt P61244); test: universal protein-binding microarray (PBM); conditions: PBS-based mixture, 10 nM His-tagged protein dimer, 2% milk, 200 ng/uL BSA, 50 ng/uL salmon testes DNA, 0.02% TX-100; detection with Alexa 488 anti-His …; high values mean tight binding; most listed sequences are background and not binding sites; double strand, one strand shown
Sequence of UniProt P61244 (P61244 whole entry): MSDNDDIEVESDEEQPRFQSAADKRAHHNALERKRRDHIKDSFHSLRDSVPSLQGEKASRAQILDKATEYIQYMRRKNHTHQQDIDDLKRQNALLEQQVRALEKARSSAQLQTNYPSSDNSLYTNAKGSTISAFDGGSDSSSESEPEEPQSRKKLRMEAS

GGCGCCAC was tested. Which binding signal (normalized occupancy) did it give?
Its binding signal (normalized occupancy) is 0.0741.

How did the binding signal (normalized occupancy) turn out when AGATGTTA was run?
The binding signal (normalized occupancy) was 0.0811.

For ACCAAAAT, which binding signal (normalized occupancy) is on record?
The binding signal (normalized occupancy) was 0.0775.

How did the binding signal (normalized occupancy) turn out when GAAGATCA was run?
Its binding signal (normalized occupancy) is 0.0746.

CCGGAACG was tested. Which binding signal (normalized occupancy) did it give?
The binding signal (normalized occupancy) was 0.0685.

Which binding signal (normalized occupancy) does the source give for CCCATCAA here?
The binding signal (normalized occupancy) was 0.0771.

AGGCCAAT was tested. Which binding signal (normalized occupancy) did it give?
The binding signal (normalized occupancy) was 0.0728.

Which binding signal (normalized occupancy) does the source give for ACTCAGGG here?
The binding signal (normalized occupancy) was 0.0699.

Which binding signal (normalized occupancy) does the source give for ACCGCGTG here?
The binding signal (normalized occupancy) was 0.182.

With GGTAGGTA as the sequence, how does the binding signal (normalized occupancy) read?
The binding signal (normalized occupancy) was 0.0774.

With AATCCTCG as the sequence, how does the binding signal (normalized occupancy) read?
The binding signal (normalized occupancy) was 0.0791.

For CTTTCCCC, which binding signal (normalized occupancy) is on record?
The binding signal (normalized occupancy) was 0.0708.

With CCGACACA as the sequence, how does the binding signal (normalized occupancy) read?
The binding signal (normalized occupancy) was 0.0823.

AGCGGGTC was tested. Which binding signal (normalized occupancy) did it give?
Its binding signal (normalized occupancy) is 0.0699.

How did the binding signal (normalized occupancy) turn out when CCTGCTGA was run?
Its binding signal (normalized occupancy) is 0.0756.

With ATGCCTGA as the sequence, how does the binding signal (normalized occupancy) read?
Its binding signal (normalized occupancy) is 0.0785.

ACCTATGG was tested. Which binding signal (normalized occupancy) did it give?
The binding signal (normalized occupancy) was 0.0727.

For ACTCCTGC, which binding signal (normalized occupancy) is on record?
The binding signal (normalized occupancy) was 0.075.

How did the binding signal (normalized occupancy) turn out when AAAAACTG was run?
The binding signal (normalized occupancy) was 0.0754.

How did the binding signal (normalized occupancy) turn out when ATCAGGAG was run?
The binding signal (normalized occupancy) was 0.072.

How did the binding signal (normalized occupancy) turn out when ACGCAACT was run?
The binding signal (normalized occupancy) was 0.0755.

For AACCGATC, which binding signal (normalized occupancy) is on record?
Its binding signal (normalized occupancy) is 0.0743.

ACTCTAAT was tested. Which binding signal (normalized occupancy) did it give?
Its binding signal (normalized occupancy) is 0.0825.

With TCGCGTCA as the sequence, how does the binding signal (normalized occupancy) read?
The binding signal (normalized occupancy) was 0.0772.

GCTAGATA was tested. Which binding signal (normalized occupancy) did it give?
The binding signal (normalized occupancy) was 0.076.

For AGGTAGAC, which binding signal (normalized occupancy) is on record?
Its binding signal (normalized occupancy) is 0.0734.

For GCACGCCA, which binding signal (normalized occupancy) is on record?
Its binding signal (normalized occupancy) is 0.0859.

How did the binding signal (normalized occupancy) turn out when AGCTGTTC was run?
The binding signal (normalized occupancy) was 0.0717.

With CTATACCC as the sequence, how does the binding signal (normalized occupancy) read?
The binding signal (normalized occupancy) was 0.0826.

CGACGGTA was tested. Which binding signal (normalized occupancy) did it give?
The binding signal (normalized occupancy) was 0.071.

How did the binding signal (normalized occupancy) turn out when CAAGAGCC was run?
Its binding signal (normalized occupancy) is 0.0711.

TATCTCGA was tested. Which binding signal (normalized occupancy) did it give?
The binding signal (normalized occupancy) was 0.0777.

With CGGGCACG as the sequence, how does the binding signal (normalized occupancy) read?
The binding signal (normalized occupancy) was 0.0805.

TACATTAA was tested. Which binding signal (normalized occupancy) did it give?
The binding signal (normalized occupancy) was 0.0769.

For CATCCCTC, which binding signal (normalized occupancy) is on record?
Its binding signal (normalized occupancy) is 0.0774.

With ACCGGCCC as the sequence, how does the binding signal (normalized occupancy) read?
Its binding signal (normalized occupancy) is 0.0691.

With CTCTTTCA as the sequence, how does the binding signal (normalized occupancy) read?
Its binding signal (normalized occupancy) is 0.0697.

CGCCCGGC was tested. Which binding signal (normalized occupancy) did it give?
Its binding signal (normalized occupancy) is 0.0697.

For GAACGACA, which binding signal (normalized occupancy) is on record?
Its binding signal (normalized occupancy) is 0.0759.

How did the binding signal (normalized occupancy) turn out when CATCGTGG was run?
The binding signal (normalized occupancy) was 0.0917.

For GAGCGAGA, which binding signal (normalized occupancy) is on record?
Its binding signal (normalized occupancy) is 0.074.

With ATCTGTCA as the sequence, how does the binding signal (normalized occupancy) read?
The binding signal (normalized occupancy) was 0.0756.

Which binding signal (normalized occupancy) does the source give for ACCCTTCG here?
Its binding signal (normalized occupancy) is 0.0701.

For CGACCACC, which binding signal (normalized occupancy) is on record?
Its binding signal (normalized occupancy) is 0.082.

For GCGTTTGA, which binding signal (normalized occupancy) is on record?
Its binding signal (normalized occupancy) is 0.0702.

Which binding signal (normalized occupancy) does the source give for GATAGCGA here?
The binding signal (normalized occupancy) was 0.073.

AATATCGA was tested. Which binding signal (normalized occupancy) did it give?
Its binding signal (normalized occupancy) is 0.0796.

With CCCGGCGA as the sequence, how does the binding signal (normalized occupancy) read?
The binding signal (normalized occupancy) was 0.0723.

TACAAGGA was tested. Which binding signal (normalized occupancy) did it give?
The binding signal (normalized occupancy) was 0.0729.

For CGACGACG, which binding signal (normalized occupancy) is on record?
Its binding signal (normalized occupancy) is 0.071.

How did the binding signal (normalized occupancy) turn out when CGGTGCAC was run?
Its binding signal (normalized occupancy) is 0.0856.

How did the binding signal (normalized occupancy) turn out when TACGGCTA was run?
The binding signal (normalized occupancy) was 0.0712.

AAGCTCCA was tested. Which binding signal (normalized occupancy) did it give?
Its binding signal (normalized occupancy) is 0.0783.

How did the binding signal (normalized occupancy) turn out when CTTACACA was run?
The binding signal (normalized occupancy) was 0.0759.

How did the binding signal (normalized occupancy) turn out when GTAGCTAC was run?
Its binding signal (normalized occupancy) is 0.0725.

AGGTTCTA was tested. Which binding signal (normalized occupancy) did it give?
The binding signal (normalized occupancy) was 0.0755.

For TTGAACAA, which binding signal (normalized occupancy) is on record?
Its binding signal (normalized occupancy) is 0.0742.

CGAGGGCC was tested. Which binding signal (normalized occupancy) did it give?
The binding signal (normalized occupancy) was 0.0729.

How did the binding signal (normalized occupancy) turn out when GGGAAAAA was run?
The binding signal (normalized occupancy) was 0.0741.

How did the binding signal (normalized occupancy) turn out when CTAATGAG was run?
The binding signal (normalized occupancy) was 0.076.

For AGACTCAT, which binding signal (normalized occupancy) is on record?
The binding signal (normalized occupancy) was 0.0857.

With ACCCACAA as the sequence, how does the binding signal (normalized occupancy) read?
The binding signal (normalized occupancy) was 0.0776.

Which binding signal (normalized occupancy) does the source give for GGGGCTAC here?
Its binding signal (normalized occupancy) is 0.0715.

Which binding signal (normalized occupancy) does the source give for GCGGCGAC here?
The binding signal (normalized occupancy) was 0.0664.

Which binding signal (normalized occupancy) does the source give for AAATCGTT here?
Its binding signal (normalized occupancy) is 0.0735.

ACGATGAC was tested. Which binding signal (normalized occupancy) did it give?
The binding signal (normalized occupancy) was 0.0759.

With ATAAGGGG as the sequence, how does the binding signal (normalized occupancy) read?
The binding signal (normalized occupancy) was 0.0784.

For CTGCTTAC, which binding signal (normalized occupancy) is on record?
The binding signal (normalized occupancy) was 0.0709.

With CCCTAGTA as the sequence, how does the binding signal (normalized occupancy) read?
The binding signal (normalized occupancy) was 0.0772.

With GGTCGGAC as the sequence, how does the binding signal (normalized occupancy) read?
The binding signal (normalized occupancy) was 0.0772.

With CCGTAGCA as the sequence, how does the binding signal (normalized occupancy) read?
Its binding signal (normalized occupancy) is 0.0754.

How did the binding signal (normalized occupancy) turn out when ATTCATAA was run?
The binding signal (normalized occupancy) was 0.0836.

How did the binding signal (normalized occupancy) turn out when AGAGTACA was run?
Its binding signal (normalized occupancy) is 0.0755.

Which binding signal (normalized occupancy) does the source give for AGTCAATG here?
The binding signal (normalized occupancy) was 0.0749.

CATAATTA was tested. Which binding signal (normalized occupancy) did it give?
The binding signal (normalized occupancy) was 0.0816.

With GACCGCCC as the sequence, how does the binding signal (normalized occupancy) read?
Its binding signal (normalized occupancy) is 0.0713.

AAAACCTC was tested. Which binding signal (normalized occupancy) did it give?
The binding signal (normalized occupancy) was 0.0698.

With CACTACGG as the sequence, how does the binding signal (normalized occupancy) read?
The binding signal (normalized occupancy) was 0.0696.

With CAAGCACG as the sequence, how does the binding signal (normalized occupancy) read?
The binding signal (normalized occupancy) was 0.0851.

Which binding signal (normalized occupancy) does the source give for AGTAATAG here?
Its binding signal (normalized occupancy) is 0.077.

For CATATTGC, which binding signal (normalized occupancy) is on record?
The binding signal (normalized occupancy) was 0.081.

CGCAGGTC was tested. Which binding signal (normalized occupancy) did it give?
Its binding signal (normalized occupancy) is 0.0664.

TAATACGA was tested. Which binding signal (normalized occupancy) did it give?
The binding signal (normalized occupancy) was 0.0769.

For CGGGGTAC, which binding signal (normalized occupancy) is on record?
The binding signal (normalized occupancy) was 0.0764.

How did the binding signal (normalized occupancy) turn out when GGACGTCA was run?
The binding signal (normalized occupancy) was 0.0747.

CCCTGTAA was tested. Which binding signal (normalized occupancy) did it give?
The binding signal (normalized occupancy) was 0.076.
